Test results from the supplement of paper PMC8728848.
This is one part of the list.

How the values were obtained:
Experiment in all cases: glycan array binding signal (z-score within array); higher = stronger binding
Settings in all cases: glycan notation: IUPAC condensed, linker removed; mutation: H59Q
[1] = molecular target: Neu5Ac(a2-3)Gal(b1-4)GlcNAc(b1-2)Man(a1-3)[Neu5Ac(a2-6)Gal(b1-4)GlcNAc(b1-2)Man(a1-6)]Man(b1-4)GlcNAc(b1-4)GlcNAc
Procedure, shortened: (§1)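 Glycan array binding is given as a within-array Z-score, which can be read as non-binding when negative. The arrays, 3228 of them, came from the Consortium for Functional Glycomics database and were retained only where the protein sequence was available. Z-scores were averaged across arrays of the same protein sequence at different concentrations or buffers and across linkers.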

[2] = molecular target: Neu5Ac(a2-3)Gal(b1-4)GlcNAc(b1-2)[Neu5Ac(a2-3)Gal(b1-4)GlcNAc(b1-4)]Man(a1-3)[GlcNAc(b1-4)][Neu5Ac(a2-3)Gal(b1-4)GlcNAc(b1-2)[Neu5Ac(a2-3)Gal(b1-4)GlcNAc(b1-6)]Man(a1-6)]Man(b1-4)GlcNAc(b1-4)GlcNAc
Procedure, shortened: as §1

[3] = molecular target: Neu5Ac(a2-3)Gal(b1-4)GlcNAc(b1-2)[Neu5Ac(a2-3)Gal(b1-4)GlcNAc(b1-4)]Man(a1-3)[GlcNAc(b1-4)][Neu5Ac(a2-3)Gal(b1-4)GlcNAc(b1-4)Man(a1-6)]Man(b1-4)GlcNAc(b1-4)GlcNAc
Procedure, shortened: as §1

[4] = molecular target: Neu5Ac(a2-3)Gal(b1-4)GlcNAc(b1-2)[Neu5Ac(a2-3)Gal(b1-4)GlcNAc(b1-6)]Man(a1-6)[Neu5Ac(a2-3)Gal(b1-4)GlcNAc(b1-2)Man(a1-3)][GlcNAc(b1-4)]Man(b1-4)GlcNAc(b1-4)GlcNAc
Procedure, shortened: as §1

[5] = molecular target: Neu5Ac(a2-3)Gal(b1-4)GlcNAc(b1-3)Gal
Procedure, shortened: as §1

[6] = molecular target: Neu5Ac(a2-3)Gal(b1-4)GlcNAc(b1-3)Gal(b1-3)GlcNAc
Procedure, shortened: as §1

[7] = molecular target: Neu5Ac(a2-3)Gal(b1-4)GlcNAc(b1-3)Gal(b1-4)GlcNAc
Procedure, shortened: as §1

[8] = molecular target: Neu5Ac(a2-3)Gal(b1-4)GlcNAc(b1-3)Gal(b1-4)GlcNAc(b1-2)Man(a1-3)[Neu5Ac(a2-3)Gal(b1-4)GlcNAc(b1-3)Gal(b1-4)GlcNAc(b1-2)Man(a1-6)]Man(b1-4)GlcNAc(b1-4)GlcNAc
Procedure, shortened: as §1

[9] = molecular target: Neu5Ac(a2-3)Gal(b1-4)GlcNAc(b1-3)Gal(b1-4)GlcNAc(b1-3)Gal(b1-4)GlcNAc
Procedure, shortened: as §1

[10] = molecular target: Neu5Ac(a2-3)Gal(b1-4)GlcNAc(b1-3)Gal(b1-4)GlcNAc(b1-3)Gal(b1-4)GlcNAc(b1-2)Man(a1-3)[Neu5Ac(a2-3)Gal(b1-4)GlcNAc(b1-3)Gal(b1-4)GlcNAc(b1-3)Gal(b1-4)GlcNAc(b1-2)Man(a1-6)]GalNAc
Procedure, shortened: as §1

[11] = molecular target: Neu5Ac(a2-3)Gal(b1-4)GlcNAc(b1-3)Gal(b1-4)GlcNAc(b1-3)GalNAc
Procedure, shortened: as §1

[12] = molecular target: Neu5Ac(a2-3)Gal(b1-4)GlcNAc(b1-3)Gal(b1-4)GlcNAc(b1-3)[Neu5Ac(a2-3)Gal(b1-4)GlcNAc(b1-3)Gal(b1-4)GlcNAc(b1-6)]GalNAc
Procedure, shortened: as §1

[13] = molecular target: Neu5Ac(a2-3)Gal(b1-4)GlcNAc(b1-3)Gal(b1-4)GlcNAc(b1-6)[Gal(b1-3)]GalNAc
Procedure, shortened: as §1

[14] = molecular target: Neu5Ac(a2-3)Gal(b1-4)GlcNAc(b1-3)Gal(b1-4)[Fuc(a1-3)]GlcNAc
Procedure, shortened: as §1

[15] = molecular target: Neu5Ac(a2-3)Gal(b1-4)GlcNAc(b1-3)GalNAc
Procedure, shortened: as §1

[16] = molecular target: Neu5Ac(a2-3)Gal(b1-4)GlcNAc(b1-3)[Neu5Ac(a2-3)Gal(b1-4)GlcNAc(b1-6)]GalNAc
Procedure, shortened: as §1

[17] = molecular target: Neu5Ac(a2-3)Gal(b1-4)GlcNAc(b1-6)GalNAc
Procedure, shortened: as §1

[18] = molecular target: Neu5Ac(a2-3)Gal(b1-4)GlcNAc(b1-6)[Gal(b1-3)]GalNAc
Procedure, shortened: as §1

[19] = molecular target: Neu5Ac(a2-3)Gal(b1-4)GlcNAc(b1-6)[Neu5Ac(a2-3)Gal(b1-3)]GalNAc
Procedure, shortened: as §1

[20] = molecular target: Neu5Ac(a2-3)Gal(b1-4)GlcNAc6S
Procedure, shortened: as §1

[21] = molecular target: Neu5Ac(a2-3)Gal(b1-4)[Fuc(a1-3)]GlcNAc
Procedure, shortened: as §1

[22] = molecular target: Neu5Ac(a2-3)Gal(b1-4)[Fuc(a1-3)]GlcNAc(b1-2)Man
Procedure, shortened: as §1

[23] = molecular target: Neu5Ac(a2-3)Gal(b1-4)[Fuc(a1-3)]GlcNAc(b1-3)Gal
Procedure, shortened: as §1

[24] = molecular target: Neu5Ac(a2-3)Gal(b1-4)[Fuc(a1-3)]GlcNAc(b1-3)Gal(b1-4)GlcNAc
Procedure, shortened: as §1

[25] = molecular target: Neu5Ac(a2-3)Gal(b1-4)[Fuc(a1-3)]GlcNAc(b1-3)Gal(b1-4)[Fuc(a1-3)]GlcNAc(b1-3)Gal(b1-4)[Fuc(a1-3)]GlcNAc
Procedure, shortened: as §1

[26] = molecular target: Neu5Ac(a2-3)Gal(b1-4)[Fuc(a1-3)]GlcNAc(b1-3)GalNAc
Procedure, shortened: as §1

[27] = molecular target: Neu5Ac(a2-3)Gal(b1-4)[Fuc(a1-3)]GlcNAc(b1-6)[Gal(b1-3)]GalNAc
Procedure, shortened: as §1

[28] = molecular target: Neu5Ac(a2-3)Gal(b1-4)[Fuc(a1-3)]GlcNAc(b1-6)[Neu5Ac(a2-3)Gal(b1-3)]GalNAc
Procedure, shortened: as §1

[29] = molecular target: Neu5Ac(a2-3)Gal(b1-4)[Fuc(a1-3)]GlcNAc6S
Procedure, shortened: as §1

[30] = molecular target: Neu5Ac(a2-3)Gal6S(b1-4)GlcNAc
Procedure, shortened: as §1

[31] = molecular target: Neu5Ac(a2-3)Gal6S(b1-4)[Fuc(a1-3)]GlcNAc
Procedure, shortened: as §1

Neu5Ac(a2-3)GalNAc = molecular target: Neu5Ac(a2-3)GalNAc
Procedure, shortened: as §1

[32] = molecular target: Neu5Ac(a2-3)GalNAc(b1-4)GlcNAc
Procedure, shortened: as §1

[33] = molecular target: Neu5Ac(a2-3)[GalNAc(b1-4)]Gal(b1-4)Glc
Procedure, shortened: as §1

[34] = molecular target: Neu5Ac(a2-3)[GalNAc(b1-4)]Gal(b1-4)GlcNAc
Procedure, shortened: as §1

[35] = molecular target: Neu5Ac(a2-3)[GalNAc(b1-4)]Gal(b1-4)GlcNAc(b1-3)GalNAc
Procedure, shortened: as §1

[36] = molecular target: Neu5Ac(a2-3)[Neu5Ac(a2-6)]GalNAc
Procedure, shortened: as §1

Neu5Ac(a2-6)Gal = molecular target: Neu5Ac(a2-6)Gal
Procedure, shortened: as §1

[37] = molecular target: Neu5Ac(a2-6)Gal(b1-3)GlcNAc(b1-3)[Gal(b1-4)GlcNAc(b1-6)]Gal(b1-4)Glc
Procedure, shortened: as §1

Neu5Ac(a2-6)Gal(b1-4)Glc = molecular target: Neu5Ac(a2-6)Gal(b1-4)Glc
Procedure, shortened: as §1

[38] = molecular target: Neu5Ac(a2-6)Gal(b1-4)GlcNAc
Procedure, shortened: as §1

[39] = molecular target: Neu5Ac(a2-6)Gal(b1-4)GlcNAc(b1-2)Man
Procedure, shortened: as §1

[40] = molecular target: Neu5Ac(a2-6)Gal(b1-4)GlcNAc(b1-2)Man(a1-3)Man(b1-4)GlcNAc(b1-4)GlcNAc
Procedure, shortened: as §1

[41] = molecular target: Neu5Ac(a2-6)Gal(b1-4)GlcNAc(b1-2)Man(a1-3)[Gal(b1-4)GlcNAc(b1-2)Man(a1-6)]Man(b1-4)GlcNAc(b1-4)GlcNAc
Procedure, shortened: as §1

[42] = molecular target: Neu5Ac(a2-6)Gal(b1-4)GlcNAc(b1-2)Man(a1-3)[GlcNAc(b1-2)Man(a1-6)]Man(b1-4)GlcNAc(b1-4)GlcNAc
Procedure, shortened: as §1

B1: rAAL-H59Q (Agrocybe aegerita), Q6WY08 (protein)
chain: MQGVNIYNISAGTSVDLAAPVTTGDIVTFFSSALNLNAGAGNPNNTTLNLFAENGAYLLQIAFRLQENVIIFNSRQPDGPWLVEQRVSDVANQFAGIDGKAMVTVFDHGDKYQVVINEKTVIQYTKQISGLTLSLSYNATEETSIFSTVVEAVTYTGLALEHHHHHH
Which “glycan array binding signal (z-score)” value [1] does the source give for B1 here?
The value was -0.096.

And the “glycan array binding signal (z-score)” value [2]?
The value was -0.13.

What about the “glycan array binding signal (z-score)” value [3] of the same binder?
The value was -0.016.

And the “glycan array binding signal (z-score)” value [4]?
The value was -0.083.

And the “glycan array binding signal (z-score)” value [5]?
The value was -0.132.

What about the “glycan array binding signal (z-score)” value [6] of the same binder?
Its value is -0.069.

And the “glycan array binding signal (z-score)” value [7]?
The value was -0.012.

And the “glycan array binding signal (z-score)” value [8]?
Its value is -0.086.

What about the “glycan array binding signal (z-score)” value [9] of the same binder?
The value was -0.128.

And the “glycan array binding signal (z-score)” value [10]?
Its value is -0.029.

And the “glycan array binding signal (z-score)” value [11]?
The value was -0.14.

What about the “glycan array binding signal (z-score)” value [12] of the same binder?
The value was -0.096.

And the “glycan array binding signal (z-score)” value [13]?
The value was -0.009.

And the “glycan array binding signal (z-score)” value [14]?
Its value is -0.092.

What about the “glycan array binding signal (z-score)” value [15] of the same binder?
Its value is -0.092.

What about the “glycan array binding signal (z-score)” value [16] of the same binder?
The value was -0.097.

What about the “glycan array binding signal (z-score)” value [17] of the same binder?
The value was -0.11.

And the “glycan array binding signal (z-score)” value [18]?
Its value is -0.035.

What about the “glycan array binding signal (z-score)” value [19] of the same binder?
Its value is -0.185.

And the “glycan array binding signal (z-score)” value [20]?
The value was -0.086.

And the “glycan array binding signal (z-score)” value [21]?
The value was -0.137.

What about the “glycan array binding signal (z-score)” value [22] of the same binder?
The value was -0.092.

What about the “glycan array binding signal (z-score)” value [23] of the same binder?
Its value is -0.051.

And the “glycan array binding signal (z-score)” value [24]?
Its value is -0.017.

And the “glycan array binding signal (z-score)” value [25]?
Its value is -0.069.

And the “glycan array binding signal (z-score)” value [26]?
The value was 0.246.

What about the “glycan array binding signal (z-score)” value [27] of the same binder?
The value was -0.104.

And the “glycan array binding signal (z-score)” value [28]?
Its value is 0.025.

What about the “glycan array binding signal (z-score)” value [29] of the same binder?
Its value is -0.122.

What about the “glycan array binding signal (z-score)” value [30] of the same binder?
Its value is -0.123.

And the “glycan array binding signal (z-score)” value [31]?
Its value is -0.117.

And the “glycan array binding signal (z-score)” value (Neu5Ac(a2-3)GalNAc)?
Its value is -0.054.

And the “glycan array binding signal (z-score)” value [32]?
The value was -0.077.

What about the “glycan array binding signal (z-score)” value [33] of the same binder?
The value was -0.088.

And the “glycan array binding signal (z-score)” value [34]?
The value was -0.1.

And the “glycan array binding signal (z-score)” value [35]?
Its value is -0.084.

What about the “glycan array binding signal (z-score)” value [36] of the same binder?
Its value is -0.128.

What about the “glycan array binding signal (z-score)” value (Neu5Ac(a2-6)Gal) of the same binder?
Its value is -0.092.

And the “glycan array binding signal (z-score)” value [37]?
Its value is -0.134.

What about the “glycan array binding signal (z-score)” value (Neu5Ac(a2-6)Gal(b1-4)Glc) of the same binder?
The value was -0.035.

And the “glycan array binding signal (z-score)” value [38]?
Its value is -0.081.

What about the “glycan array binding signal (z-score)” value [39] of the same binder?
Its value is -0.037.

What about the “glycan array binding signal (z-score)” value [40] of the same binder?
Its value is -0.073.

And the “glycan array binding signal (z-score)” value [41]?
Its value is -0.067.

And the “glycan array binding signal (z-score)” value [42]?
The value was -0.09.
